Results on 14 compounds are retold here after ChEMBL document CHEMBL1961873, “Compounds: GSK PKIS; Assays: Nanosyn kinase panel” (2012).

For some assays here: This list holds what a sample rich in strong results left over. The list shows a part of the results, in another mix than the full data.

In the first test the target is Tyrosine-protein kinase ABL1 (Homo sapiens) (UniProt P00519). As to conditions: at 1 µM.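 Also: reported values are mean percent inhibition of ABL1 kinase activity.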
Chain of UniProt P00519 (P00519 whole entry): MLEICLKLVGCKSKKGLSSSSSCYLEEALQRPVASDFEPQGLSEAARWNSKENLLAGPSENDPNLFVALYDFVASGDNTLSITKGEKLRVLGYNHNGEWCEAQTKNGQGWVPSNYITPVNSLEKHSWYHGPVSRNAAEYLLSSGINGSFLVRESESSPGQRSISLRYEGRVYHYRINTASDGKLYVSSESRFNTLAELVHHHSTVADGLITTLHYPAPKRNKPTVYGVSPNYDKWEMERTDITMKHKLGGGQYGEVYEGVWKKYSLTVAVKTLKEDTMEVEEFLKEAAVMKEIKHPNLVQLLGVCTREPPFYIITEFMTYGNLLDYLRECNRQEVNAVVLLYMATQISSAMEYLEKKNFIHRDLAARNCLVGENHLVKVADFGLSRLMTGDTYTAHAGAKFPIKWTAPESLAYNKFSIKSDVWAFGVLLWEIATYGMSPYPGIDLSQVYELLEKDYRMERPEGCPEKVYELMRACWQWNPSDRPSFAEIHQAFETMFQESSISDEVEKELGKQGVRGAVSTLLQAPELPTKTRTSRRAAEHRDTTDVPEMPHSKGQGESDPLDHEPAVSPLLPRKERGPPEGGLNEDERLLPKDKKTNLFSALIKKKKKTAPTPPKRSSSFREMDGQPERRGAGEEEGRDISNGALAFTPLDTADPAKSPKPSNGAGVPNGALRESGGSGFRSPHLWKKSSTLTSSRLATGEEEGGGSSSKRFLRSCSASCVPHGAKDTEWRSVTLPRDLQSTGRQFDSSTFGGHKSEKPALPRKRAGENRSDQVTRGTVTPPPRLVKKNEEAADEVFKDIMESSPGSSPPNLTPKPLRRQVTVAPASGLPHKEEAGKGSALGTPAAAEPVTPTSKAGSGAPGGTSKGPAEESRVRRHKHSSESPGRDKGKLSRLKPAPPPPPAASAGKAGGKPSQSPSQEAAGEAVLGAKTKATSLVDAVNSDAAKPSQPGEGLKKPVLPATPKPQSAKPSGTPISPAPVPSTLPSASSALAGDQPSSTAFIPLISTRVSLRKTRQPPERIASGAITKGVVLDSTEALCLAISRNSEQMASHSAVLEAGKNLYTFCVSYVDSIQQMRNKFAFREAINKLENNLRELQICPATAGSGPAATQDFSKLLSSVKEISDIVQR
Consider `O=C1NC(=O)C(c2cccc([N+](=O)[O-])c2)=C1Nc1cc(Cl)c(O)c(Cl)c1`, for which the inhibition (in general, the change of the read-out against control, counted positive when it falls) was 0.82%.
Same read-out and setting: as for `Cc1cccc(Oc2nccc(-c3c(-c4ccc(F)cc4)ncn3C3CCNCC3)n2)c1C`, the figure is 5.08%.
With `Fc1ccc(-c2ncn(C3CCNCC3)c2-c2ccnc(Oc3ccc(Cl)cc3)n2)cc1`, the inhibition came to 0.8%.
Take `Fc1ccc(-c2ncn(C3CCNCC3)c2-c2ccnc(Oc3cccc(F)c3)n2)cc1`: the inhibition was 12.1%.
Take `COc1ccccc1C1=C(Nc2ccccc2)C(=O)NC1=O`: the inhibition worked out at 21.9%.
On the same count and under the same terms, as for `O=C1NC(=O)C(c2ccccc2)=C1Nc1ccccc1`, the figure is 15.3%; as for `NC(=O)CCc1ccccc1Oc1nccc(-c2c(-c3ccc(F)cc3)ncn2C2CCNCC2)n1`, -2.21%.
The same measure, in the same setting: the value for `CS(=O)(=O)c1ccc(Oc2nccc(-c3c(-c4ccc(F)cc4)ncn3C3CCNCC3)n2)cc1` was 4.83%; that for `COc1ccccc1Oc1nccc(-c2c(-c3ccc(F)cc3)ncn2C2CCNCC2)n1` was 5.27%.
Regarding `Fc1ccc(-c2ncn(C3CCNCC3)c2-c2ccnc(Oc3cccc(C(F)(F)F)c3)n2)cc1`, the inhibition came out at 7.86%.
For `O=C(O)c1ccc(Oc2nccc(-c3c(-c4ccc(F)cc4)ncn3C3CCNCC3)n2)cc1`, the inhibition was 5.05%.
Turning to `CC(C)(C)c1ccc(Oc2nccc(-c3c(-c4ccc(F)cc4)ncn3C3CCNCC3)n2)cc1`, the inhibition stood at 4.69%.
Regarding `Fc1ccc(Oc2nccc(-c3c(-c4ccc(F)cc4)ncn3C3CCNCC3)n2)cc1`, the inhibition was -4.18%.
On the same count and under the same terms, the value for `O=C1NC(=O)C(c2ccccc2Cl)=C1Nc1cc(Cl)c(O)c(Cl)c1` was 10.4%.

A further test addresses ALK tyrosine kinase receptor (Homo sapiens) (UniProt Q9UM73). The following applies: at 0.1 µM.
Chain of UniProt Q9UM73 (Q9UM73 whole entry, looked up): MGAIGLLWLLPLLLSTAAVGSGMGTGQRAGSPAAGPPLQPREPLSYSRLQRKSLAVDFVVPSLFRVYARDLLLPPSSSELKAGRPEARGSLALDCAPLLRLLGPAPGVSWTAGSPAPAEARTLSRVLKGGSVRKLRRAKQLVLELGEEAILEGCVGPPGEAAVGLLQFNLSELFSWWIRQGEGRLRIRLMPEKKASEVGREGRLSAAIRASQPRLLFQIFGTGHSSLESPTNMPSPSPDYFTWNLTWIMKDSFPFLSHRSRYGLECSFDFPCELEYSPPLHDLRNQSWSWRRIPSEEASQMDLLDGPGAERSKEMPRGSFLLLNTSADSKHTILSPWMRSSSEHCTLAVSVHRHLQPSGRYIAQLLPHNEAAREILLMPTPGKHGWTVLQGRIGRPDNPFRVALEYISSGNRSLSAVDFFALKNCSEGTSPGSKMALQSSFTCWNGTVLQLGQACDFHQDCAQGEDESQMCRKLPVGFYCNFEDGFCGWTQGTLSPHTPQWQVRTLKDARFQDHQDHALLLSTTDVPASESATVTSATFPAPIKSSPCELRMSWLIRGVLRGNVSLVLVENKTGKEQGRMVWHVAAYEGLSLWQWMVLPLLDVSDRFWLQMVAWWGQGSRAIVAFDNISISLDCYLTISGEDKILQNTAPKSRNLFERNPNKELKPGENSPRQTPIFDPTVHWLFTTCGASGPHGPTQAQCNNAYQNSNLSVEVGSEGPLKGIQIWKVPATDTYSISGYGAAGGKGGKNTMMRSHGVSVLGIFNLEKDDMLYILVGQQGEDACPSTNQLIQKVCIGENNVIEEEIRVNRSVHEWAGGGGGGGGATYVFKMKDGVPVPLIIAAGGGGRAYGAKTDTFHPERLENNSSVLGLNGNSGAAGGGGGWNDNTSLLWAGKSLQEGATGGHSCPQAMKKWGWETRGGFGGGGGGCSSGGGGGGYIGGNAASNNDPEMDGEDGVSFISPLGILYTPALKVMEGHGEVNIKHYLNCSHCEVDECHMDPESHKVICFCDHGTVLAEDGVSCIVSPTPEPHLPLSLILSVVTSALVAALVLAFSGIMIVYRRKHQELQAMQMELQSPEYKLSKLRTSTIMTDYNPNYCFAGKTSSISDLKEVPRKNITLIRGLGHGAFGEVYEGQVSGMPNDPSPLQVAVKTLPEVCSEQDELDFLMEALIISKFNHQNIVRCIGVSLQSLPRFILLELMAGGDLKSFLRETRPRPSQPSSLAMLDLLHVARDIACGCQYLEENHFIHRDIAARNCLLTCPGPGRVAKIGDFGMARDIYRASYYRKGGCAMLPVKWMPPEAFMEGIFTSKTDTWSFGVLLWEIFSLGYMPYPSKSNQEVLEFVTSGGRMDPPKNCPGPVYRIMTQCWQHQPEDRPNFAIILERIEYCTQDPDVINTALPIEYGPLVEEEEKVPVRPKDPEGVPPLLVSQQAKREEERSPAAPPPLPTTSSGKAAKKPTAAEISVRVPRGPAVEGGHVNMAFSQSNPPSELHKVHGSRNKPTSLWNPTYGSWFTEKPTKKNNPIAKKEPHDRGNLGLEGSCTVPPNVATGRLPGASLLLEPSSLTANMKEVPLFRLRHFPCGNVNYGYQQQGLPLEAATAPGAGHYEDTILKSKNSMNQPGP
On to `O=C1NC(=O)C(c2cccc([N+](=O)[O-])c2)=C1Nc1cc(Cl)c(O)c(Cl)c1`, for which the inhibition was 3.25%.
In the case of `Cc1cccc(Oc2nccc(-c3c(-c4ccc(F)cc4)ncn3C3CCNCC3)n2)c1C`, the inhibition was 3.48%.
Take `Fc1ccc(-c2ncn(C3CCNCC3)c2-c2ccnc(Oc3ccc(Cl)cc3)n2)cc1`: the inhibition is 1.35%.
On to `Fc1ccc(-c2ncn(C3CCNCC3)c2-c2ccnc(Oc3cccc(F)c3)n2)cc1`, for which the inhibition worked out at 3.75%.
Same read-out and setting: as for `COc1ccccc1C1=C(Nc2ccccc2)C(=O)NC1=O`, the figure is 2.63%; as for `O=C1NC(=O)C(c2ccccc2)=C1Nc1ccccc1`, 4.6%.
Still for that read-out and setting: the value for `NC(=O)CCc1ccccc1Oc1nccc(-c2c(-c3ccc(F)cc3)ncn2C2CCNCC2)n1` was -3.29%.
Same read-out and setting: as for `CS(=O)(=O)c1ccc(Oc2nccc(-c3c(-c4ccc(F)cc4)ncn3C3CCNCC3)n2)cc1`, the figure is 3.34%.
As for `COc1ccccc1Oc1nccc(-c2c(-c3ccc(F)cc3)ncn2C2CCNCC2)n1`, the inhibition came out at 3.92%.
The same measure, in the same setting: the value for `Fc1ccc(-c2ncn(C3CCNCC3)c2-c2ccnc(Oc3cccc(C(F)(F)F)c3)n2)cc1` was 4.02%; that for `O=C(O)c1ccc(Oc2nccc(-c3c(-c4ccc(F)cc4)ncn3C3CCNCC3)n2)cc1` was 4.3%; that for `CC(C)(C)c1ccc(Oc2nccc(-c3c(-c4ccc(F)cc4)ncn3C3CCNCC3)n2)cc1` was 2%.
On the same count and under the same terms, as for `Fc1ccc(Oc2nccc(-c3c(-c4ccc(F)cc4)ncn3C3CCNCC3)n2)cc1`, the figure is -0.41%.
In the case of `O=C1NC(=O)C(c2ccccc2Cl)=C1Nc1cc(Cl)c(O)c(Cl)c1`, the inhibition was 2.14%.

Another test shares this target. As to conditions: at 1 µM.
As to `O=C1NC(=O)C(c2cccc([N+](=O)[O-])c2)=C1Nc1cc(Cl)c(O)c(Cl)c1`, the inhibition is 3.11%.
As to `Cc1cccc(Oc2nccc(-c3c(-c4ccc(F)cc4)ncn3C3CCNCC3)n2)c1C`, the inhibition turned out to be 4.68%.
With `Fc1ccc(-c2ncn(C3CCNCC3)c2-c2ccnc(Oc3ccc(Cl)cc3)n2)cc1`, the inhibition is 1.34%.
Turning to `Fc1ccc(-c2ncn(C3CCNCC3)c2-c2ccnc(Oc3cccc(F)c3)n2)cc1`, the inhibition was 4.16%.
The same measure, in the same setting: as for `COc1ccccc1C1=C(Nc2ccccc2)C(=O)NC1=O`, the figure is 7.95%; as for `O=C1NC(=O)C(c2ccccc2)=C1Nc1ccccc1`, 15%; as for `NC(=O)CCc1ccccc1Oc1nccc(-c2c(-c3ccc(F)cc3)ncn2C2CCNCC2)n1`, -1.97%.
The same measure, in the same setting: the value for `CS(=O)(=O)c1ccc(Oc2nccc(-c3c(-c4ccc(F)cc4)ncn3C3CCNCC3)n2)cc1` was 3.77%.
Regarding `COc1ccccc1Oc1nccc(-c2c(-c3ccc(F)cc3)ncn2C2CCNCC2)n1`, the inhibition came out at 5.39%.
Same read-out and setting: as for `Fc1ccc(-c2ncn(C3CCNCC3)c2-c2ccnc(Oc3cccc(C(F)(F)F)c3)n2)cc1`, the figure is 5.34%.
The same measure, in the same setting: as for `O=C(O)c1ccc(Oc2nccc(-c3c(-c4ccc(F)cc4)ncn3C3CCNCC3)n2)cc1`, the figure is 5.07%; as for `CC(C)(C)c1ccc(Oc2nccc(-c3c(-c4ccc(F)cc4)ncn3C3CCNCC3)n2)cc1`, 3.19%.
With `Fc1ccc(Oc2nccc(-c3c(-c4ccc(F)cc4)ncn3C3CCNCC3)n2)cc1`, the inhibition is 0.66%.
Turning to `O=C1NC(=O)C(c2ccccc2Cl)=C1Nc1cc(Cl)c(O)c(Cl)c1`, the inhibition turned out to be 3.85%.

A further test has as its target Tyrosine-protein kinase ABL2 (Homo sapiens) (UniProt P42684). The following applies: at 0.1 µM.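 Also: values are mean percent inhibition of ARG (ABL2), measured within the GSK PKIS set.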
Chain of UniProt P42684 (P42684 whole entry): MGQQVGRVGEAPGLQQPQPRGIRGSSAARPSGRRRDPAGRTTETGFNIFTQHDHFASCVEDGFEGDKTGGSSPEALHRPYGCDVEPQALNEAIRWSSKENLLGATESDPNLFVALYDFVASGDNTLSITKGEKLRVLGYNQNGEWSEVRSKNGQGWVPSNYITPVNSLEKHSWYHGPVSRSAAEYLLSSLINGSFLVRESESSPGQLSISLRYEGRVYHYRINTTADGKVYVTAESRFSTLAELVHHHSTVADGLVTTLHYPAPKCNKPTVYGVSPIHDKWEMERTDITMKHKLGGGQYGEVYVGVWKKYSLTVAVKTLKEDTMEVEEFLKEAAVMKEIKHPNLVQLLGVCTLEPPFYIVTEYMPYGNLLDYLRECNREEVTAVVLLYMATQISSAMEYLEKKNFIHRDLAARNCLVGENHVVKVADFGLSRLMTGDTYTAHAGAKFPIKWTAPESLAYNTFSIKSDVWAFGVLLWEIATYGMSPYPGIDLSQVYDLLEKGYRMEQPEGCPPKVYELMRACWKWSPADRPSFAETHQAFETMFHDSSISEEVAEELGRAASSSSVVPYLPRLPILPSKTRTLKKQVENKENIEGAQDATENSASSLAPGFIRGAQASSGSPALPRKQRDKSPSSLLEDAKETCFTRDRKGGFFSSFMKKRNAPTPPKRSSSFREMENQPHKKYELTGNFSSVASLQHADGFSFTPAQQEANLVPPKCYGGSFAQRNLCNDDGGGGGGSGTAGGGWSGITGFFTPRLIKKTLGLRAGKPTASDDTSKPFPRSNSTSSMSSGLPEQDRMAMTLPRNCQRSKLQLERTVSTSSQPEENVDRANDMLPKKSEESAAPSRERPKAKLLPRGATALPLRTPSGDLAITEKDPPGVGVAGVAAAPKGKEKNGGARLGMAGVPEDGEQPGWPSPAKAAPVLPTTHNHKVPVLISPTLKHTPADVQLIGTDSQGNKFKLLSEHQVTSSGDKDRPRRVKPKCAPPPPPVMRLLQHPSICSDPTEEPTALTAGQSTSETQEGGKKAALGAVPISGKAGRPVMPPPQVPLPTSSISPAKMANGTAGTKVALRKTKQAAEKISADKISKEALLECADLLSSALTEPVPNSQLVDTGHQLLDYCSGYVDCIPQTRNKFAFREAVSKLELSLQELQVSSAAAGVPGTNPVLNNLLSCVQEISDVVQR
For `O=C1NC(=O)C(c2cccc([N+](=O)[O-])c2)=C1Nc1cc(Cl)c(O)c(Cl)c1`, the inhibition was found to be 2.92%.
Take `Cc1cccc(Oc2nccc(-c3c(-c4ccc(F)cc4)ncn3C3CCNCC3)n2)c1C`: the inhibition is 2.44%.
On to `Fc1ccc(-c2ncn(C3CCNCC3)c2-c2ccnc(Oc3ccc(Cl)cc3)n2)cc1`, for which the inhibition came out at 3.95%.
Still for that read-out and setting: the value for `Fc1ccc(-c2ncn(C3CCNCC3)c2-c2ccnc(Oc3cccc(F)c3)n2)cc1` was 5.61%.
Still for that read-out and setting: as for `COc1ccccc1C1=C(Nc2ccccc2)C(=O)NC1=O`, the figure is 7.45%.
On the same count and under the same terms, as for `O=C1NC(=O)C(c2ccccc2)=C1Nc1ccccc1`, the figure is 4.49%; as for `NC(=O)CCc1ccccc1Oc1nccc(-c2c(-c3ccc(F)cc3)ncn2C2CCNCC2)n1`, -1%; as for `CS(=O)(=O)c1ccc(Oc2nccc(-c3c(-c4ccc(F)cc4)ncn3C3CCNCC3)n2)cc1`, 3.57%.
For the compound `COc1ccccc1Oc1nccc(-c2c(-c3ccc(F)cc3)ncn2C2CCNCC2)n1`, the inhibition turned out to be 2.57%.
As to `Fc1ccc(-c2ncn(C3CCNCC3)c2-c2ccnc(Oc3cccc(C(F)(F)F)c3)n2)cc1`, the inhibition is 5.73%.
In the case of `O=C(O)c1ccc(Oc2nccc(-c3c(-c4ccc(F)cc4)ncn3C3CCNCC3)n2)cc1`, the inhibition was determined as 3.39%.
Regarding `CC(C)(C)c1ccc(Oc2nccc(-c3c(-c4ccc(F)cc4)ncn3C3CCNCC3)n2)cc1`, the inhibition stood at 1.72%.
Still for that read-out and setting: as for `Fc1ccc(Oc2nccc(-c3c(-c4ccc(F)cc4)ncn3C3CCNCC3)n2)cc1`, the figure is -1.62%.
On the same count and under the same terms, as for `O=C1NC(=O)C(c2ccccc2Cl)=C1Nc1cc(Cl)c(O)c(Cl)c1`, the figure is 3.61%.
